Results on 112 molecules are retold here after PubChem BioAssay AID488969 (Vanderbilt High Throughput Screening Facility, 2010).

Molecules are shown by their SMILES. The full ranking holds about 110,000 compounds; the median of “z-score” is about -0.1, and the highest 2% start at about 2. The list shows a part of the results.

The assay has as its target Metabotropic glutamate receptor 8 (Rattus norvegicus) (UniProt P70579). The assay is described as follows: rat mGluR8 modulators via GIRK flux, primary screen, cell-based, thallium flux, HTS (AID 488969). The note with it: HEK293 rat mGluR8, GIRK (G protein-gated inwardly rectifying potassium channel) thallium flux, FluoZin2; at 10 µM; stronger effect = higher value; submaximal glutamate (EC20) added with thallium.
UniProt P70579, sequence (P70579 whole entry, looked up): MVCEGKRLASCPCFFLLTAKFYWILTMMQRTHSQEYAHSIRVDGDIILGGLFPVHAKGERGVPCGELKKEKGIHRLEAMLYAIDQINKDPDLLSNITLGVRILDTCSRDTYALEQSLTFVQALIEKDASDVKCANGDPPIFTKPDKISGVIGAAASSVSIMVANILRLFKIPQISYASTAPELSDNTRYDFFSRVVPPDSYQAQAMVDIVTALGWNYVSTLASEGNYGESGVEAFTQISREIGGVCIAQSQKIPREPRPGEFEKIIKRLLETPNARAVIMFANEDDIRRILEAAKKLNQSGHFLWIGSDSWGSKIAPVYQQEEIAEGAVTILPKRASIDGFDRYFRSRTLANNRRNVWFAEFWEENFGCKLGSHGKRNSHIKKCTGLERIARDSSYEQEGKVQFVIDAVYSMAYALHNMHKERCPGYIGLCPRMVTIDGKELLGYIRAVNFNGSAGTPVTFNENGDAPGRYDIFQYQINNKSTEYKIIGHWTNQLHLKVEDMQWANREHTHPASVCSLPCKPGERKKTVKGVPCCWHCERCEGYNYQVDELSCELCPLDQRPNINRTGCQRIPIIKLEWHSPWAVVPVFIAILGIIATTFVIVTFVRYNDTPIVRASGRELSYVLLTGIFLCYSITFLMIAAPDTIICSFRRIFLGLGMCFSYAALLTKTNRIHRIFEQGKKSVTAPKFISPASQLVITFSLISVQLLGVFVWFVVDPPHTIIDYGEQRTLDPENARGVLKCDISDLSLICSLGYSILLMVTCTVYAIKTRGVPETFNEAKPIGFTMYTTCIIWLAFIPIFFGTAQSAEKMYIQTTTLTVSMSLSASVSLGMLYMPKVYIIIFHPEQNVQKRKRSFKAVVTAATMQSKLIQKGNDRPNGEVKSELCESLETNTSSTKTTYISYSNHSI
Molecule `Cc1ccc(OCc2nc(C#N)c(N3CCCC3)o2)cc1` came in with a z-score of -0.342. In the case of `CC(=O)Nc1ccc(S(=O)(=O)N2CCN(CC(=O)NC3CCCC3)CC2)cc1` it was 0.0496; in that of `Cc1cc2nncn2c2ccccc12`, -0.397. In the case of `COc1ccc(CC(=O)NNC(=O)c2cnccn2)cc1` it was -0.09; in that of `C=CCNc1nc2c(c(=O)[nH]c(=O)n2C)n1CCCCC`, -0.209. The value for `COc1ccc(CNc2ccc3c(c2)CCC3)cc1OC` was -0.148; that for `O=C(/C=C/c1ccco1)NCC1CCCO1` (configuration not stated) was -0.494; that for `CCc1cccc(C)c1NC(=O)C1C2CCC(O2)C1C(=O)O` (configuration not stated) was -0.333. The molecule `COC(=O)c1ccc(NC(=O)c2ccccc2N(C)S(C)(=O)=O)cc1` had a z-score of -0.176. With `c1ccc(COc2ccc(OCCCCN3CCCC3)cc2)cc1`, the z-score turned out to be 0.565. The value for `O=C(O)CCC(=O)Nc1nc2ccccc2s1` was 0.0645.

In the case of `CCOc1cc(S(=O)(=O)NCc2ccccc2)c(OCC)cc1-n1cnnn1`, the z-score came to 0.0994. The value for `CCN1CCN(c2nc(-c3ccccc3)nc3ccccc23)CC1` was 0.12; that for `COc1ccccc1CNC(=O)CCNS(=O)(=O)c1cccc2nsnc12` was -0.0935; that for `CC(C)C(CCN1C(=O)c2ccccc2C1=O)c1ccco1` (configuration not stated) was -0.0448. The value for `N#Cc1c(SCC(=O)Nc2ccccc2)nsc1SCC(=O)Nc1ccccc1` was -0.42; that for `Cc1oc(-c2cccc(Cl)c2)nc1CN1CCC(C(=O)NCCCN2CCCC2=O)CC1` was -0.113.

Take `C=CCSc1ncccc1C(=O)O`: the z-score was determined as 0.437.

The molecule `CCOC(=O)c1cc(C)n(CCc2ccccc2)c1C` registered a z-score of -0.341.

In the case of `Cc1c(NC(=O)C(C)OC(=O)c2cccs2)c(=O)n(-c2ccccc2)n1C` (configuration not stated), the z-score was 0.0558.

In the case of `CCc1ccccc1N(CC(=O)N/N=C/c1ccc(OC(=O)OC)c(OC)c1)S(C)(=O)=O`, the z-score is -0.214. The value for `Nn1c(SCC(=O)NCc2ccccc2)nncc1=O` was 0.234.

As for `COc1ccc(C2C(C#N)=C(N)Oc3c2c(C)nn3-c2ccccc2)cc1Cn1nc(C)c([N+](=O)[O-])c1C` (configuration not stated), the z-score was -1.18. In the case of `CCCCCN(C(=O)NC(=O)Nc1ccccc1C)S(=O)(=O)c1ccccc1` it was -0.518; in that of `O=C(Oc1ccccc1)c1ccc(-n2cnnn2)cc1`, 0.5; in that of `Cc1ccc(NC(=O)C(C)OC(=O)CCNS(=O)(=O)c2ccc(C)cc2)cc1` (configuration not stated), 0.0934. In the case of `CC(=O)NC(=O)COC(=O)/C=C/c1c(C)nn(Cc2c(Cl)cccc2Cl)c1Cl` it was -0.49; in that of `O=C(CN(Cc1ccco1)C(=O)CNS(=O)(=O)c1ccc(F)cc1)NCc1ccc(F)cc1`, 0.167. In the case of `Cc1cc(C)c2c(-n3cccc3)c(C(=O)O)sc2n1` it was -0.785; in that of `O=C(c1c[nH]c2ccc(F)cc2c1=O)N1CCCCCC1`, 0.464; in that of `C/C(=N\Nc1ccc(Cl)c(Cl)c1)c1ccc(-n2ccnc2)cc1`, -0.187. As to `CCOC(=O)c1ccc(NC(=S)NNC(=O)COC)cc1`, the z-score is -0.275. In the case of `COc1cccc(CN(Cc2ccco2)S(=O)(=O)c2ccc(S(=O)(=O)NCc3ccccc3)cc2)c1OC` it was 0.483. In the case of `O=C(CN1C(=O)C2C3C=CC(C3)C2C1=O)NCC1COc2ccccc2O1` (configuration not stated) it was -0.696.

For the molecule `COc1cccc(N2C(=O)c3ccncc3C2=O)c1`, the z-score was -0.133. In the case of `COc1ccc(CNC(=O)C(c2ccco2)N(Cc2ccccc2)C(=O)Cc2cccs2)cc1` (configuration not stated) it was -0.316; in that of `COc1ccccc1NCC(=O)N/N=C/c1cccnc1`, -0.0577. `COc1ccc(/C=N/Nc2ncnc3sc4c(c23)CCCC4)cc1OC` yielded a z-score of 0.0529. In the case of `COc1cccc2c(=O)n(CC(=O)NC3CCCCC3)ccc12` it was -0.321; in that of `O=C(CN1C(=O)c2cccc3cccc1c23)NCc1ccc2c(c1)OCO2`, -0.178; in that of `COc1ccccc1-n1c(-c2cn(C)nc2C)n[nH]c1=S`, -0.126.

`Cc1ccc(O)c(C(=O)c2cc(C(=O)NCCc3ccccc3)c(=O)n(CCc3ccccc3)c2)c1` had a z-score of -0.117.

Consider `OC(CNCc1ccc(F)cc1)(c1ccccc1)c1ccc(F)cc1` (configuration not stated), for which the z-score was -0.174. The value for `COc1ccc(C(=O)CC2OC(=O)c3ccccc32)cc1OC` (configuration not stated) was -0.48; that for `Nc1c(C(=O)NCc2ccco2)nnn1CC(=O)Nc1ccccc1` was 0.358; that for `CCc1n[nH]c(=O)n1Cn1c(CC)n[nH]c1=O` was 0.876. `C#CCSc1nnc(CSc2nc3ccccc3s2)n1-c1ccccc1` came in with a z-score of -0.395. As for `Cc1ccccc1OCC(=O)NN1CCN(C)CC1`, the z-score was 0.122. The value for `COc1ccc2c(c1)C1(Nc3ccccc3C(=O)N1c1ccccc1)C(=O)N2` (configuration not stated) was 0.642; that for `Cc1ccsc1/C=C1\SC(N)=NC1=O` was 0.0887. In the case of `COc1ccc(/C=N/NC(=S)Nc2ccccc2)cc1COc1ccc(F)cc1F` it was -0.047; in that of `Cc1cc(N2CCCC2=O)cc(C)c1S(=O)(=O)NCCOc1ccccc1`, 0.41; in that of `CCS(=O)(=O)c1ccc2oc(SCC(=O)NC(C)C3CC4CCC3C4)nc2c1` (configuration not stated), 0.154. The value for `O=c1[nH]c2ccccc2nc1NCCN1CCOCC1` was 0.25. Turning to `O=C(NCC1CCCCC1)C1CCN(C(=O)NC2CCCCC2)CC1`, the z-score is -0.403. For the molecule `CCCOC(=S)Nc1ccccc1`, the z-score was 0.258. The value for `COc1ccc(C(=O)NCC(=O)OCC(=O)N2CCCc3ccccc32)cc1` was -0.509; that for `Cc1csc(NC(=O)CSc2nnc(CCNC(=O)c3ccc(Cl)c(Cl)c3)n2C)n1` was -0.837.

`CCOC(=O)C1=C(C)N(C)C(=S)NC1c1ccc(Cl)cc1` (configuration not stated) displayed a z-score of -0.242. The molecule `Oc1c(Cl)cccc1C=Nc1cc(C(F)(F)F)ccc1N1CCCC1` showed a z-score of -0.231. The value for `CSc1ccc(Cl)c(C(=O)OCC(=O)NCc2ccco2)c1` was -0.588. The value for `Cc1ccccc1C(=O)Nc1cccc(NC(=O)Cn2cnc3c(=O)n(C)c(=O)n(C)c32)c1` was -2.15; that for `Cc1cccc2nc(CNc3ccc(F)cc3)cn12` was -0.69; that for `CN1C(=S)SC(C)(C)C1(C)NO` (configuration not stated) was 0.0261. The value for `O=C(NCc1ccco1)c1cc2c(s1)CSC2` was 0.353; that for `CC(=O)Nc1ccc(/C=N/NC(=O)c2cc3ccccc3nc2C)cc1` was -1.24. `CCC(=O)Nc1ccc(NC(=O)Cc2ccccc2)cn1` came in with a z-score of -0.14. For `Cc1cc2oc(C(=O)Nc3ccc(S(=O)(=O)N4CCCC(C)C4)cc3)cc(=O)c2cc1Cl` (configuration not stated), the z-score is -0.311.

With `CCC(=O)N(CCC(Cc1ccccc1)c1ccc2c(c1)OCO2)Cc1ccccc1F` (configuration not stated), the z-score worked out at 0.151. In the case of `CCC(Sc1nc2c(cnn2-c2ccccc2)c(=O)[nH]1)C(=O)OC` (configuration not stated) it was -0.468; in that of `CN(C)S(=O)(=O)c1ccc(C(=O)Nc2ccc(CCC(=O)N3CCCC3)cc2)cc1`, -0.523; in that of `CCN(CC)C(=O)CSc1nc2sc(C)c(C)c2c(=O)[nH]1`, 0.178. The value for `Oc1ccc(/C=N\Nc2cc(N3CCOCC3)nc(N3CCOCC3)n2)c(O)c1` was -0.52; that for `CCOC(=O)c1cc2c(c(CSc3nc4ccccc4c(=O)n3Cc3ccco3)c1)OCOC2` was -0.113; that for `CCOC(=O)Cc1csc(NC(=O)CN(C)S(=O)(=O)c2cccc3cccnc23)n1` was -0.861. The value for `COC(=O)C(C)(C)NC(=O)c1cccs1` was 0.202; that for `Cc1ccc(S(=O)(=O)N/N=C\C=C\c2ccccc2)cc1` was 0.0901.

In turn, `CSCC[C@H](NC(=O)c1cccc([N+](=O)[O-])c1C)c1nc2ccccc2[nH]1` registered a z-score of -0.189.

The molecule `O=C1c2ccccc2C(Nc2ccc(Cl)cn2)N1Cc1ccccc1` (configuration not stated) gave a z-score of -0.981. As for `COc1cccc(NC(=O)CSc2nnc(C)s2)c1`, the z-score came out at 0.406.

Molecule `CCC1CCCCN1CCNC(=O)C1CCN(S(=O)(=O)c2c(C)noc2C)CC1` (configuration not stated) had a z-score of 0.663. The value for `Cc1ccc(C(=O)C[n+]2cc(-c3ccc(C)cc3)n3c2CCCCC3)cc1` was -0.00401; that for `CCc1nnc(SCc2cn3c(C)cc(C)nc3n2)n1N` was -0.0749; that for `COc1cccc(/C=N/NC(N)=S)c1OS(=O)(=O)c1ccccc1` was -0.0118. The value for `CCOC(=O)C1=C(C)C(c2ccccc2OC)NC(=O)N1` (configuration not stated) was 0.0111. The value for `CCOC(=O)NCN1C(=O)C2C3C=CC(C3)C2C1=O` (configuration not stated) was 0.216. In the case of `O=C1C2(c3ccccc3)CN(CCCO)CC1(c1ccccc1)CN(CCCO)C2`, the z-score is -0.0275. In the case of `COc1ccc(C2CC(=O)C3=C(C2)NC(C)=C(C(=O)Nc2ccccc2C)C3c2coc3ccc(C)cc3c2=O)cc1OC` (configuration not stated) it was -0.17; in that of `Cc1ccnc(NC(=O)CCc2c(C)nc3ncnn3c2C)c1`, 0.246; in that of `O=S1(=O)N=C(Oc2cccc3ccccc23)c2ccccc21`, 0.0873. In the case of `COC(=O)CCC(=O)c1oc2ccccc2c1N` it was -0.127; in that of `O=C(CCn1c(=O)oc2ccccc21)N1CCN(c2ccccc2Cl)CC1`, 0.839; in that of `COc1cccc(CNS(=O)(=O)/C=C/c2ccc3c(c2)OCO3)c1`, -0.117. As for `COc1cc(NS(=O)(=O)c2ccc(N/C=C\C(=O)c3ccc(OC)c(OC)c3)cc2)nc(OC)n1`, the z-score was -0.305.

The molecule `S=C(NCc1cccs1)Nc1ccccc1Cl` had a z-score of -0.146. Turning to `CC1(C)CC(C2N3CC4(C)CN2CC(C)(C3)C4=O)CCO1` (configuration not stated), the z-score was -0.134. The value for `COc1cccc(NC(=O)CSc2nc3c(oc4ccccc43)c(=O)[nH]2)c1` was -0.709; that for `Clc1ccc(CNC2CCCC2)cc1` was 0.561. In the case of `CC(C)c1nc(SCC(=O)N2CCOCC2)c2c(=O)n(C)c(=O)n(C)c2n1` it was -0.272; in that of `Cn1c(CCN2CCOCC2)nc2cc(NC(=O)COc3ccccc3)ccc21`, -0.509; in that of `CNS(=O)(=O)c1cccc(C(=O)OCC(=O)/C=C2/N(C)c3ccccc3C2(C)C)c1`, -0.421. Consider `COCCNC(=S)N/N=C/c1ccccc1C(=O)O`, for which the z-score was -0.187.

As for `Cc1ccc(C(=O)COc2cccc(NC(=O)c3ccco3)c2)cc1`, the z-score is -0.642. The value for `O=C(NCC1CCCO1)C1CCCN(S(=O)(=O)c2cccc3nsnc23)C1` (configuration not stated) was 0.749; that for `Cc1cc(C)n(-c2nc(N(C)C)nc(N(C)C)n2)n1` was 1.04. In the case of `O=C(Nc1ccc(Br)cc1)c1cccc(N2C(=O)C3C4CCC(C4)C3C2=O)c1` (configuration not stated) it was -0.317. In the case of `C#CCNc1nc(C)nc2c1nnn2Cc1ccccc1F` it was -1.29; in that of `c1coc(CN2CN=C(Nc3nc4ccccc4s3)NC2)c1`, -0.425; in that of `Cc1noc(C)c1C(=O)OC(C(=O)NC1CCCC1)c1ccc(F)cc1` (configuration not stated), 0.659.

The molecule `CCOc1ccc(NC(=O)c2cccc3c2C(=O)N(CCOC)C3)cc1` showed a z-score of 0.0598. In the case of `C=CCOc1ccc(CN(C)CC(=O)N(CC(C)C)c2c(N)n(CC(C)C)c(=O)[nH]c2=O)cc1` it was -0.182. Molecule `C=CCNC(=S)NNC(=O)c1cccc(Br)c1` came in with a z-score of -0.0521.
